In PubChem BioAssay AID588855 (National Center for Advancing Translational Sciences (NCATS), 2011):
Among all 410,000 compounds or so, about 5,000 (1.2%) were called active. Inconclusive means that the source gave no clear call. Such entries were picked first, then a sample of the others. Calls come from the whole dose curve; as a rule, active = well fitted inhibition curve with a large enough effect; inconclusive = small, poorly fitted or top-dose-only effect; inactive = no such curve, though single readings can be large or run the other way. Potencies beside an inconclusive call are fits to weak or partial responses and may not hold up.

Assay: qHTS for Inhibitors of TGF-b; note: nearly all actives have a fitted effect of over 65% in size
Conditions: HepG2 CAGA-GFP TGF-b/SMAD3 reporter, GFP fluorescence, 18 h, TGF-beta stimulated, 500 pg/mL final; series mostly up to 46.1 µM
How it was run: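 HEPG2 CAGA-GFP cells (1000/well, DMEM with 1% FBS) were pre-incubated 2 h at 37 degrees C, given compound by pin tool, then stimulated with TGF-beta at 500 pg/mL final for 18 h before per-cell GFP fluorescence imaging.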
Potency is the fitted concentration of half-maximal effect; tags give direction and shape of the fitted curve.

| Compound | Potency |
| --- | --- |
| CCOC(=O)c1cnc2ccc(OCC)cc2c1N1CCN(c2ccccc2OC)CC1 | inconclusive: 35.5 µM [inhibitor, single point] |
| COc1ccccc1NS(=O)(=O)c1cc2c(cc1Cl)NC(=O)CO2 | inconclusive: 35.5 µM [inhibitor, single point] |
| CN1CCN(c2cc3c(c4c2[nH]c2ccccc24)C(=O)CC(C)(C)C3)CC1 | inconclusive: 20 µM [inhibitor, single point] |
| COc1ccccc1NC(=O)N1CCC(c2nc3cc(C)c(C)cc3[nH]2)CC1 | inconclusive: 1.12 µM [inhibitor, partial curve, poor fit] |
| Cc1nn(-c2ccccc2)nc1CNC(=O)c1ncoc1-c1ccccc1 | inconclusive: 35.5 µM [inhibitor, single point] |
| CCCCn1c(SCC(=O)N2c3ccccc3Sc3ccccc32)nc2c1c(=O)n(C)c(=O)n2C | inconclusive: 35.5 µM [inhibitor, single point] |
| CN(C)c1ccc(-c2ccnc3c2CC(C)(C(=O)Nc2ccccc2)O3)cc1 (stereo not given) | inactive |
| CC1Cc2nc(SCC(=O)N3CCc4ccccc43)n(C)c(=O)c2S1 (stereo not given) | inconclusive: 3.55 µM [inhibitor, full curve, poor fit] |
| CCN(C(=O)CSc1cc(-c2ccccc2)c2ccc(OC)cc2n1)C1CCS(=O)(=O)C1 (stereo not given) | inconclusive: 35.5 µM [inhibitor, single point] |
| O=C(N/N=C\c1ccc(F)cc1)c1ccc(F)cc1 | inconclusive: 3.98 µM [inhibitor, full curve, poor fit] |
| CCc1c(C)nc2cc(-c3ccc(OC)c(OC)c3)nn2c1N1CCCC1 | active: 22.4 µM |
| COC(=O)c1c(NC(=S)NN2CCOCC2)sc2c1CCCC2 | inconclusive: 22.4 µM [inhibitor, single point] |
| CC(C)CC(=O)NNC(=S)NCc1ccco1 | inactive |
| CCn1cc(C(=O)NCCC(C)C)c(=O)c2cc(F)c(N3CCN(C(=O)c4ccco4)CC3)cc21 | inactive |
| O=C(c1c(F)cccc1F)N(Cc1cccs1)C1CCCC1 | inactive |
| O=C(CNc1cccc(S(=O)(=O)N2CCCC2)c1)Nc1ccc(F)c(F)c1 | inconclusive: 35.5 µM [inhibitor, single point] |
| O=C(Nc1cccc(C(F)(F)F)c1)Nc1ccc(N2CCCC2)c(S(=O)(=O)Nc2ccccc2Cl)c1 | active: 2.82 µM |
| O=C1NCCCc2c1oc1cc(Br)c(O)c(Br)c21 | inconclusive: 35.5 µM [inhibitor, single point] |
| Cc1nc2cc(NC(=O)N(C)c3ccc4ccccc4c3)ccc2o1 | inconclusive: 22.4 µM [inhibitor, single point] |
| COc1ccc(-c2cc(C(=O)N3CCN(c4ccccn4)CC3)c3ccccc3n2)cc1 | inconclusive: 22.4 µM [inhibitor, partial curve, poor fit] |
| O=C(COC(=O)c1c2c(nc3ccccc13)CCCC2)Nc1ccc2c(c1)OCO2 | inconclusive: 25.1 µM [inhibitor, single point] |
| COc1ccccc1NC(=O)c1ccc([N+](=O)[O-])o1 | active: 2.82 µM |
| COc1ccc(NC(=O)CN2C(=O)CSc3ccc(S(=O)(=O)N4CCCC4)cc32)cc1OC | inactive |
| O=C1CN(C(=O)CC2C(=O)NCCN2Cc2ccccc2C(F)(F)F)CCN1 (stereo not given) | inconclusive: 20 µM [inhibitor, single point] |

| Compound | Potency |
| --- | --- |
| Oc1ccc(Oc2ccc3c(C(F)(F)F)cc(C(F)(F)F)nc3n2)cc1 | inconclusive: 35.5 µM [inhibitor, partial curve, poor fit] |
| O=C(c1ccc([N+](=O)[O-])c(CS(=O)(=O)c2ccc(Cl)cc2)c1)N1CCCCC1 | inactive |
| Cc1ccccc1Cn1c(CN2CCC(C(=O)NCCN(C)C)CC2)cc2ccccc21 | active: 12.6 µM |
| C[C@@H]1CN([C@@H](C)CO)C(=O)CCCn2nncc2CO[C@H]1CN(C)Cc1ccc(Oc2ccccc2)cc1 | inactive |
| COc1ccc(-c2[nH]ncc2CNCC(C)(C)N2CCOCC2)cc1F | inactive |
| COc1cc(NC(=O)CCc2nnc3ccc(N4CCCCC4)nn23)cc(OC)c1OC | inactive |
| C=C(C)c1cccc(C(C)(C)NC(=O)N(C)C2CCN(C)CC2)c1 | inconclusive: 35.5 µM [inhibitor, single point] |
| COc1ccc(C(=O)N2CCN(Cc3ccc4c(c3)OCO4)CC2)cc1OC | inconclusive: 17.8 µM [inhibitor, single point] |
| CCOc1ccc2c(c1)c(=O)c(S(=O)(=O)c1ccccc1)cn2CC(=O)Nc1ccccc1OC | inactive |
| Cc1ccc(NC(=O)C2CC(=O)N(c3ccc4c5c(cccc35)CC4)C2)cc1 (stereo not given) | inactive |
| Cc1ccc(CNC(=O)C2CCN(S(=O)(=O)c3ccc4c(c3)CCCN4C(=O)C3CCC3)CC2)cc1 | inconclusive: 17.8 µM [inhibitor, single point] |
| COc1ccc(/C=C(\C#N)C(=O)NCc2cccs2)cc1OC | inconclusive: 0.355 µM [inhibitor, full curve, poor fit] |
| COc1ccccc1C(=O)Nc1nnc(S(=O)(=O)N(C)c2ccc(Cl)cc2)s1 | inconclusive: 25.1 µM [inhibitor, single point] |
| COc1ccc(Cl)cc1NC(=O)c1ccc2c(c1)CCCN2S(C)(=O)=O | inactive |
| CCc1cccc(NC(=O)CN(c2ccc(C)cc2)S(=O)(=O)c2c(C)noc2C)c1 | inconclusive: 35.5 µM [inhibitor, single point] |
| CCc1c(C)[nH]n(-c2nc(-c3cccc([N+](=O)[O-])c3)cs2)c1=O | inconclusive: 35.5 µM [inhibitor, single point] |
| O=C(c1cccc([N+](=O)[O-])c1)c1ccc2c(c1)OCCOCCOCCOCCO2 | inactive |
| Cc1cc(NS(=O)(=O)c2ccc(NC(=S)NC(=O)c3ccc(C(C)(C)C)cc3)cc2)no1 | inconclusive: 14.1 µM [inhibitor, single point] |
| Cc1ccc(C)c(CN2C(=O)c3ccccc3S(=O)c3ccc(C(=O)NCCC4=CCCCC4)cc32)c1 (stereo not given) | inactive |
| COCCNC(=O)c1c(CS(=O)(=O)c2ccccc2)noc1C(=O)NCc1ccccc1 | inactive |
| CN(C)c1ccc(/C=C/N2C=CCc3c2ccc2ccccc32)cc1 | active: 7.08 µM |
| O=C1C(C2=NC(c3ccccn3)C3C(=O)N(c4ccccc4)C(=O)C23)=C(O)c2ccccc21 (stereo not given) | inactive |
| Cc1ccc(S(=O)(=O)N2CCCC(C(=O)NCc3cccnc3)C2)cc1Cl (stereo not given) | inactive |
| COc1ccc(CCNc2oc(COc3ccccc3F)nc2C#N)cc1OC | inactive |

| Compound | Potency |
| --- | --- |
| Cc1ccc(S(=O)(=O)N(c2nc(NC(C)C)nc(NC(C)C)n2)n2cnnc2)cc1 | inconclusive: 0.631 µM [inhibitor, partial curve, poor fit] |
| COc1ccccc1Cc1c(-c2ccc(C)cc2)nc2ccc(Cl)cn12 | inactive |
| CC(=O)Nc1ccc(S(=O)(=O)NCCS(=O)(=O)N2CCN(c3ccccc3F)CC2)cc1 | inactive |
| Cc1ccc(C)c(S(=O)(=O)N2CCCCC2CCNC(=O)C(=O)NC2CCCC2)c1 (stereo not given) | inconclusive: 0.501 µM [inhibitor, full curve, poor fit] |
| CCOc1ccc2c(c1)c(=O)c(S(=O)(=O)c1ccc(Cl)cc1)cn2Cc1ccccc1C | inconclusive: 8.91 µM [inhibitor, partial curve, poor fit] |
| COc1cccc(Nc2nc3ccc(C(=O)c4ccccc4)cc3n3c(C)nnc23)c1 | inactive |
| COc1ccc(Cl)cc1NC(=O)CN(C)C(=O)c1cc2c(s1)CCCC2 | inactive |
| CC(C)c1ccc(NC(=S)NCc2ccc3c(c2)OCO3)cc1 | inconclusive: 22.4 µM [inhibitor, single point] |
| Cc1ccc2c(CC(=O)NCc3cccs3)coc2c1 | inconclusive: 5.62 µM [inhibitor, single point] |
| Cc1ccc(N(CC(=O)Nc2cc(Cl)ccc2Oc2ccccc2)S(C)(=O)=O)c(C)c1 | inconclusive: 6.31 µM [inhibitor, single point] |
| CCCc1nc2c3ccccc3ccn2c1CC1CCCCC1 | inconclusive: 35.5 µM [inhibitor, single point] |
| CC(=O)N(C)c1ccc(N=Nc2c(C)[nH]n(C(N)=S)c2=O)cc1 | inactive |
| Cn1cccc1CC(=O)NNC(=S)Nc1ccccc1Cl | inactive |
| CC(C)(C)OC(=O)N1CCC(C(=O)Nc2cccc(C(=O)N3CCCC3)c2)CC1 | inconclusive: 6.31 µM [inhibitor, single point] |
| Cc1ccn2c(Cc3ccccc3)c(-c3ccc(F)cc3)nc2c1 | inconclusive: 35.5 µM [inhibitor, single point] |
| Cc1nc(NC(=O)C(C)(C)C)sc1C(=O)Cn1cc(CCc2ccccc2)nn1 | inactive |
| Cc1ccc(C2CCN(C(=O)Nc3ccc(C)c(C)c3)C2)cc1 (stereo not given) | inconclusive: 0.316 µM [inhibitor, full curve, poor fit] |
| O=C(CSc1nnc2scc(-c3ccccc3)n12)Nc1nsc(-c2ccccc2)n1 | inactive |
| CCCCC(C(=O)NC(C)(C)C)N(Cc1ccccc1Cl)C(=O)c1snc(C(N)=O)c1N (stereo not given) | inconclusive: 20 µM [inhibitor, single point] |
| CSc1c(-c2ccccn2)c(N)nn1C(=O)C1CCC1 | inactive |
| COc1cccc(C(=O)Nc2ccc(S(=O)(=O)N(Cc3ccccc3)c3ccccc3)cc2)c1 | inactive |
| CCN1CCN(Cc2ccc(NC(=O)c3cc(NC(=O)c4cnn(-c5ccccc5)c4N)cc(OC)c3)cc2C(F)(F)F)CC1 | inconclusive: 12.6 µM [inhibitor, partial curve, poor fit] |
